Experimental data as given in the supplement of paper PMC4967469.

What was measured:
Assay in all cases: Viability of human cancer cell lines after 72 h of drug (GDSC screen)
Gemcitabine = compound: Nc1ccn([C@@H]2O[C@H](CO)[C@@H](O)C2(F)F)c(=O)n1 [Gemcitabine]; conditions: top dose 1.024 µM
Description: (§1)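 Human cancer cell lines in 384-well plates, medium with 10% serum, drug for 72 h over a 256-fold dose range (nine 2-fold or five 4-fold steps up to the top dose). Adherent lines were fixed and stained with the nucleic acid dye Syto60, suspension lines read with resazurin; signal relative to control wells, capped at 0 and 100%. One two-parameter sigmoid per drug and line, fitted in a mixed model over all curves with the slope shared within a line.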

GNF-2 = compound: NC(=O)c1cccc(-c2cc(Nc3ccc(OC(F)(F)F)cc3)ncn2)c1 [GNF-2]; conditions: top dose 1.28 µM; top dose inferred
Description: as §1

Bicalutamide = compound: CC(O)(CS(=O)(=O)c1ccc(F)cc1)C(=O)Nc1ccc(C#N)c(C(F)(F)F)c1 [Bicalutamide]; conditions: top dose inferred
Description: as §1

MP470 = compound: S=C(NCc1ccc2c(c1)OCO2)N1CCN(c2ncnc3c2oc2ccccc23)CC1 [MP470]; conditions: top dose 20 µM; top dose inferred
Description: as §1

KIN001-270 = compound: Cc1ccc(Nc2cc(-c3cccc(N4C(=O)c5ccccc5C4=O)c3)ncn2)cc1NS(C)(=O)=O [KIN001-270]; conditions: top dose 20 µM; top dose inferred
Description: as §1

AUY922 = compound: CCNC(=O)c1noc(-c2cc(C(C)C)c(O)cc2O)c1-c1ccc(CN2CCOCC2)cc1 [AUY922]; conditions: top dose 0.256 µM; top dose inferred
Description: as §1

TW-37 = compound: CC(C)c1ccccc1Cc1cc(C(=O)Nc2ccc(S(=O)(=O)c3ccccc3C(C)(C)C)cc2)c(O)c(O)c1O [TW-37]; conditions: top dose 5 µM
Description: as §1

T0901317 = compound: O=S(=O)(c1ccccc1)N(CC(F)(F)F)c1ccc(C(O)(C(F)(F)F)C(F)(F)F)cc1 [T0901317]; conditions: top dose 10.24 µM; top dose inferred
Description: as §1

Nilotinib = compound: Cc1cn(-c2cc(NC(=O)c3ccc(C)c(Nc4nccc(-c5cccnc5)n4)c3)cc(C(F)(F)F)c2)cn1 [Nilotinib]; conditions: top dose 2 µM
Description: as §1

LFM-A13 = compound: C/C(O)=C(\C#N)C(=O)Nc1cc(Br)ccc1Br [LFM-A13]; conditions: top dose 16 µM; top dose inferred
Description: as §1

[1] = top dose 1.024 µM, screen: GDSC drug entry 150
[2] = top dose 10 µM, screen: GDSC drug entry 1502

Row | Cell Line | AUC (Gemcitabine) | IC50 (Gemcitabine) [µM] | AUC (GNF-2) | IC50 (GNF-2) [µM] | AUC (Bicalutamide; [1]) | IC50 (Bicalutamide; [1]) [µM] | AUC (Bicalutamide; [2]) | IC50 (Bicalutamide; [2]) [µM] | AUC (MP470) | IC50 (MP470) [µM] | AUC (KIN001-270) | IC50 (KIN001-270) [µM] | AUC (AUY922) | IC50 (AUY922) [µM] | AUC (TW-37) | IC50 (TW-37) [µM] | AUC (T0901317) | IC50 (T0901317) [µM] | AUC (Nilotinib) | IC50 (Nilotinib) [µM] | AUC (LFM-A13) | IC50 (LFM-A13) [µM]
1 | MHH-PREB-1 (B-cell leukaemia, suspension) | 0.708 | 0.23 | 0.982 | > 1.28 | 0.979 | > 1.02 | 0.971 | > 10 | 0.903 | > 20 | 0.907 | > 20 | 0.638 | 0.0368 | 0.386 | 0.158 | 0.984 | > 10.2 | 0.967 | > 2 | 0.986 | > 16
2 | NCI-H2141 (small cell lung carcinoma, suspension) | 0.742 | 0.307 | 0.99 | > 1.28 | 0.99 | > 1.02 | 0.99 | > 10 | 0.897 | > 20 | 0.99 | > 20 | 0.843 | 0.173 | 0.602 | 0.589 | 0.99 | > 10.2 | 0.987 | > 2 | 0.974 | > 16
3 | CPC-N (small cell lung carcinoma, suspension) | 0.576 | 0.105 | 0.966 | > 1.28 | 0.985 | > 1.02 | 0.957 | > 10 | 0.876 | > 20 | 0.981 | > 20 | 0.98 | > 0.256 | 0.485 | 0.284 | 0.961 | > 10.2 | 0.857 | 1.87 | 0.941 | > 16
4 | KLE (endometrium, adherent) | 0.628 | 0.176 | 0.962 | > 1.28 | 0.978 | > 1.02 | 0.948 | > 10 | 0.918 | > 20 | 0.953 | > 20 | 0.794 | 0.203 | 0.609 | 0.738 | 0.961 | > 10.2 | 0.978 | > 2 | 0.962 | > 16
5 | SW684 (fibrosarcoma, adherent) | 0.983 | > 1.02 | 0.972 | > 1.28 | 0.977 | > 1.02 | 0.98 | > 10 | 0.909 | > 20 | 0.983 | > 20 | 0.755 | 0.125 | 0.674 | 1.2 | 0.97 | > 10.2 | 0.983 | > 2 | 0.897 | > 16
6 | NCI-H226 (lung squamous cell carcinoma, adherent) | 0.746 | 0.338 | 0.987 | > 1.28 | 0.987 | > 1.02 | 0.986 | > 10 | 0.858 | 17.8 | 0.98 | > 20 | 0.616 | 0.0339 | 0.792 | 2.39 | 0.956 | > 10.2 | 0.981 | > 2 | 0.979 | > 16
7 | COLO-668 (small cell lung carcinoma, adherent) | 0.288 | 0.0161 | 0.989 | > 1.28 | 0.985 | > 1.02 | 0.988 | > 10 | 0.828 | 12.3 | 0.989 | > 20 | 0.624 | 0.0351 | 0.807 | 2.56 | 0.971 | > 10.2 | 0.937 | > 2 | 0.983 | > 16
8 | NCI-H211 (small cell lung carcinoma, adherent) | 0.255 | 0.013 | 0.98 | > 1.28 | 0.983 | > 1.02 | 0.97 | > 10 | 0.78 | 8.01 | 0.986 | > 20 | 0.528 | 0.019 | 0.916 | > 5 | 0.988 | > 10.2 | 0.95 | > 2 | 0.965 | > 16
9 | LS-1034 (large intestine, adherent) | 0.873 | > 1.02 | 0.986 | > 1.28 | 0.985 | > 1.02 | 0.984 | > 10 | 0.957 | > 20 | 0.968 | > 20 | 0.639 | 0.0404 | 0.68 | 1.05 | 0.986 | > 10.2 | 0.986 | > 2 | 0.976 | > 16
10 | CW-2 (large intestine, adherent) | 0.973 | > 1.02 | 0.989 | > 1.28 | 0.987 | > 1.02 | 0.988 | > 10 | 0.888 | > 20 | 0.986 | > 20 | 0.989 | > 0.256 | 0.55 | 0.432 | 0.963 | > 10.2 | 0.986 | > 2 | 0.989 | > 16
11 | DU-4475 (breast, suspension) | 0.14 | 0.00666 | 0.992 | > 1.28 | 0.984 | > 1.02 | 0.983 | > 10 | 0.962 | > 20 | 0.95 | > 20 | 0.429 | 0.0107 | 0.623 | 0.635 | 0.991 | > 10.2 | 0.902 | 1.75 | 0.958 | > 16
12 | NH-12 (neuroblastoma, adherent) | 0.44 | 0.0431 | 0.984 | > 1.28 | 0.985 | > 1.02 | – | – | 0.908 | > 20 | 0.958 | > 20 | 0.654 | 0.0454 | 0.5 | 0.312 | 0.983 | > 10.2 | 0.984 | > 2 | 0.963 | > 16

Lines with a small IC50 respond at low doses; a limit (>, <) means that the fit lies beyond the doses tested. AUC, from the same fit, is the share of area under the viability curve across the 256-fold dose range; values near 1 show little effect. For some of these results: Any top dose called inferred was derived from the fitted curves, not read from the paper. For some of these results: Drugs with an entry number were screened twice under separate entries, and the two screens often disagree.
